Test results from ChEMBL document CHEMBL4888484, “Replenishing the malaria drug discovery pipeline: Screening and hit evaluation of the MMV Hit Generation Library 1 (HGL1) against asexual blood stage Plasmodium falciparum ,using a nano luciferase reporter read-out” (2022).
Several values for one entry are separate records, joined by “and”; a condition that tells them apart may be missing. Identical values can stand only once. The campaign covered roughly 150,000 compounds. About 540 (0.36%) showed an effect of 50% or more. This is one part of the list.

Test system: Plasmodium falciparum
Test: Primary screen in NF54 nanoGlo assay, in single point, at 2uM, 72h; a lower Z score goes with more inhibition
Assay type: functional, Erythrocyte
Conditions: timepoint 72 hour

In the case of Cc1noc(C)c1CCCNC[C@H](C)c1ccccc1, the “% Inhibition” value is reported as -5% and the Z score is reported as 0.46.
In the case of Cc1noc([C@@H]2CNCCCN2C(=O)c2ccccc2)n1, the “% Inhibition” value is reported as -7% and the Z score is reported as 1.26.
With Cn1cc(CN(CCO)Cc2cnc3c(-c4ccccc4)cnn3c2)cn1 the “% Inhibition” value was -5% and the Z score was 1.07.
With CCOc1c(CNC[C@]2(O)CCCN3CCCC[C@@H]32)cccc1OC the “% Inhibition” value was -9% and the Z score was 1.41.
In the case of CCS(=O)(=O)NCC(=O)N1CC(c2ccsc2)CC1C (stereo unspecified), the “% Inhibition” value is reported as -7% and the Z score is reported as 0.95.
For O[C@H]1[C@H](NCc2c[nH]c3ccccc23)[C@H]2CO[C@H](O2)[C@@H]1N1CCC(Cc2ccccc2)CC1, the “% Inhibition” value was -11% and the Z score was 1.72.
For Cc1noc(C)c1CN(C)c1ccc(C(=O)N2CCC(C)CC2)cn1, the “% Inhibition” value was -18% and the Z score was 2.6.
In the case of Cc1ncnc(OCC2CCN(C[C@H](O)C(F)(F)F)CC2)c1C, the “% Inhibition” value is reported as 1% and the Z score is reported as -0.09.
Cc1cnc(CN(C)Cc2cccc(Cl)c2)cn1 was tested, and the “% Inhibition” value was -2% and the Z score was 0.3.
In the case of COc1ccc(CC(=O)NCc2cccnc2-n2ccnc2)nc1, the “% Inhibition” value is reported as 4% and the Z score is reported as -0.69.
With CN(c1ncnc2c1[nH]c1ccc(F)cc12)C1CCCCC1 the “% Inhibition” value was 0% and the Z score was -0.02.
With O=C(NCCc1ccc(C(F)(F)F)cn1)OCCCF the “% Inhibition” value was -5% and the Z score was 0.92.
C=CCN(C)c1nnc(C2CCCCO2)n1CC(OC)C1CC1 (stereo unspecified) was tested, and the “% Inhibition” value was -12% and the Z score was 1.54.
For CO[C@@H](C)c1nc(COc2c(C)c(C)nc3ccc(F)cc23)cs1, the “% Inhibition” value was 5% and the Z score was -0.58.
In the case of Cc1nn(C)c(C)c1CC(=O)Nc1nc(-c2cccs2)nn1C, the “% Inhibition” value is reported as -13% and the Z score is reported as 2.05.
For Cc1ccc(C)c(NC(=O)N(C)Cc2nc([C@H]3CC34CCN(C)CC4)no2)c1, the “% Inhibition” value was -11% and the Z score was 1.51.
With O=C(Cc1ccsc1)NC1CCN(c2ccc(-c3cccc(F)c3)nn2)CC1 the “% Inhibition” value was -14% and the Z score was 1.63.
For O=C(Cc1ccc(OC(F)F)cc1)NC1CCN(C2CCC2)CC1, the “% Inhibition” value was 3% and the Z score was -0.5.
With CCCc1noc([C@H]2CCC(=O)N(Cc3ccc(Cl)cc3)C2)n1 the “% Inhibition” value was -7% and the Z score was 0.84.
CC1OCCN(C(=O)Nc2ccccc2OCC2CC2)C1C (stereo unspecified) was tested, and the “% Inhibition” value was -11% and the Z score was 1.42.
In the case of COc1ccc(CN2C(=O)N[C@@H](CC(=O)Nc3cccc4[nH]ccc34)C2=O)cc1OC, the “% Inhibition” value is reported as 4% and the Z score is reported as -0.56.
In the case of CCn1cc(C(=O)Nc2cc(Cl)ccc2NC2CC2)cn1, the “% Inhibition” value is reported as -11% and the Z score is reported as 1.65.
With CCNC(=O)[C@H](C)NC(=O)Nc1ccc(F)cc1 the “% Inhibition” value was 0% and the Z score was -0.06.
In the case of O[C@@H](Cn1cnc2c(N3CCOCC3)ncnc21)c1ccccc1Cl, the “% Inhibition” value is reported as 7% and the Z score is reported as -0.78.
With COc1cc([C@H]2CC(=O)Nc3c(-c4ccc(Cl)cc4)nsc32)ccc1O the “% Inhibition” value was -14% and the Z score was 1.72.
Cc1cccc2c(=O)n(CC(=O)Nc3cccc(C(=O)NC4CC4)c3)cnc12 was tested, and the “% Inhibition” value was -2% and the Z score was 0.17.
For CN1C(=O)CN(Cc2cncn2C2CCCCC2)C(=O)c2ccccc21, the “% Inhibition” value was 3% and the Z score was -0.4.
CC(C)Oc1ccccc1CN1CC(F)(F)C[C@H]1COc1ccncc1 was tested, and the “% Inhibition” value was 2% and the Z score was -0.31.
For O=C(N[C@H]1C[C@@H]2C[C@H]1CN2S(=O)(=O)c1ccc(C(F)(F)F)cc1)c1cccnc1, the “% Inhibition” value was 2% and the Z score was -0.37.
COCc1nc(CNc2nc(N(C)C)nc3c2CCCC3)no1 was tested, and the “% Inhibition” value was -6% and the Z score was 0.73.
For CCC(O)CN1CCOC(CN2CCN(C(=O)c3c(OC)cccc3OC)CC2)C1 (stereo unspecified), the “% Inhibition” value was 5% and the Z score was -0.7.
With COc1ccc(NS(=O)(=O)c2ccc3c(c2)C(C)(C)CN3CC(=O)N2CCCC2)cc1 the “% Inhibition” value was -4% and the Z score was 0.42.
c1ccc2c(c1)CCC[C@@H]2n1ccnc1-c1cc2n(n1)CCCNC2 was tested, and the “% Inhibition” value was 3% and the Z score was -0.46.
For Cc1cc(C)nc(CN(C)CC(=O)NCCc2ccc(F)cc2)c1, the “% Inhibition” value was 0% and the Z score was 0.06.
Cc1oc(-c2ccccc2)nc1Cn1nnnc1C was tested, and the “% Inhibition” value was -15% and the Z score was 1.46.
COc1nn(C)cc1C(=O)N1CCC[C@H](Oc2cccnn2)C1 was tested, and the “% Inhibition” value was 41% and the Z score was -4.67.
Cc1ccc(CN2CCN(S(=O)(=O)c3ccc(C4CCCCC4)cc3)c3cccnc32)cc1 was tested, and the “% Inhibition” value was -14% and the Z score was 1.61.
In the case of CC(C)Cc1cc(CNC(=O)c2cncnc2)on1, the “% Inhibition” value is reported as 10% and the Z score is reported as -1.27.
For COc1ccc2c(c1)c(NC(C)=O)c1n2C[C@@](C)(C(=O)NC2CCCC2)N(Cc2ccco2)C1=O, the “% Inhibition” value was -14% and the Z score was 1.38.
For O=C(c1ccccc1)c1cc(-c2ccccc2)on1, the “% Inhibition” value was -1% and the Z score was 0.2.
For Cc1cc(Cl)ccc1OCC(=O)N1CCC(Cn2cnnc2)CC1, the “% Inhibition” value was -14% and the Z score was 2.21.
With CCN1CCC[C@@H]1CNCc1cccs1 the “% Inhibition” value (2 µM) was -18% and -1%.
With NC(=O)C1CCC(CNC(=O)C#Cc2ccccc2)O1 (stereo unspecified) the “% Inhibition” value was 27% and the Z score was -3.06.
In the case of CN1CCN(C2(CNC(=O)[C@H](O)c3ccccc3)CCCC2)CC1, the “% Inhibition” value is reported as -6% and the Z score is reported as 1.08.
With Cc1ccccc1[C@H](CO)N(C)C(=O)c1ccnnc1C the “% Inhibition” value was -1% and the Z score was 0.21.
In the case of CCc1onc(C)c1Cn1c(=O)c(C(F)(F)F)cn(C(C)C)c1=O, the “% Inhibition” value is reported as 11% and the Z score is reported as -1.36.
CCCC1CC(C(=O)NS(=O)(=O)CC(F)(F)F)CCO1 (stereo unspecified) was tested, and the “% Inhibition” value was 4% and the Z score was -0.58.
For Fc1ccc(-c2csc(-n3nccc3-c3ccccc3)n2)cc1, the “% Inhibition” value was -4% and the Z score was 0.52.
With Cc1ccn2c(CN3CCN(C(=O)c4cc(C)nc5c4cnn5C(C)C)CC3)c(C)nc2c1 the “% Inhibition” value was 6% and the Z score was -0.73.
For Cc1ccc(OS(=O)(=O)c2cccc(C(F)(F)F)c2)c(-c2nc3cc(C)ccc3o2)c1, the “% Inhibition” value was 4% and the Z score was -0.84.
CC1(C)C(=O)Nc2cc(C(=O)NC3(c4cccc(Cl)c4)CC3)ccc21 was tested, and the “% Inhibition” value was -4% and the Z score was 0.55.
With CC1CCC(C)N1Cc1nc(-c2ccccn2)no1 (stereo unspecified) the “% Inhibition” value was -10% and the Z score was 1.51.
C[C@@H](Cc1cnccn1)n1ccnc1-c1nccn1C was tested, and the “% Inhibition” value was -3% and the Z score was 0.33.
For Cc1oc(-c2ccccc2)nc1CN[C@H]1CCOC12CCOCC2, the “% Inhibition” value was -7% and the Z score was 1.05.
CNc1cc(C)nc(N2CCn3nc(CNC(=O)C4CCCC4)cc3C2)n1 was tested, and the “% Inhibition” value was -5% and the Z score was 0.65.
In the case of CCOC(=O)CN(CC)C(=O)c1ccc(C#N)c(C)n1, the “% Inhibition” value is reported as -4% and the Z score is reported as 0.39.
In the case of Cc1ncc(CNC(=O)c2cn(C)nc2-c2ccccc2Cl)s1, the “% Inhibition” value is reported as 8% and the Z score is reported as -1.17.
With COc1cccc(CN2C[C@]34C=C[C@H](O3)C(C(=O)N(C)Cc3nccn3C)C4C2=O)c1 (stereo partly specified) the “% Inhibition” value was -7% and the Z score was 1.37.
For COC(=O)CC1(NC(=O)Nc2nccs2)CCC1, the “% Inhibition” value was 0% and the Z score was 0.09.
In the case of C[C@H]1C(=O)NCCN1C(=O)CCCc1c[nH]c2ccccc12, the “% Inhibition” value is reported as -10% and the Z score is reported as 1.34.
With CC(C)(C)c1nnc(-c2cccnc2)o1 the “% Inhibition” value was 6% and the Z score was -0.89.
In the case of COc1cc2c(-c3ccccc3)c(C)oc2cc1CN1CCN(Cc2ccccc2)CC1, the “% Inhibition” value is reported as -7% and the Z score is reported as 1.4.
Cc1n[nH]c(C)c1CC(=O)N1C[C@]2(C)C[C@H]1CC(C)(C)C2 was tested, and the “% Inhibition” value was -16% and the Z score was 1.45.
In the case of COc1ccc([C@@H](NC(=O)c2nn(-c3cccc(C(C)C)c3)cc2O)c2nccn2C)cc1, the “% Inhibition” value is reported as -3% and the Z score is reported as 0.52.
Cc1cnc(CNC(=O)c2cccc3cc(C)oc23)cn1 was tested, and the “% Inhibition” value was 10% and the Z score was -1.34.
With C#CCCC1(CCC(=O)N2CCc3ncc(C)cc32)N=N1 the “% Inhibition” value was -5% and the Z score was 0.95.
For C[C@@H](CNC(=O)Cc1nn(C)c2ccccc12)c1ccc(F)cc1F, the “% Inhibition” value was -12% and the Z score was 1.78.
With CN(Cc1cnn(C)c1)C(=O)C1=NN(c2ccccc2)[C@H](C(N)=O)C1 the “% Inhibition” value was -6% and the Z score was 1.07.
For O=C(C1CCNCC1)N1CCN(C/C=C/c2ccccc2)CC1, the “% Inhibition” value was -15% and the Z score was 1.99.
In the case of COC[C@H]1CCN(C(=O)c2cc3c(cc2C)OCCO3)C1, the “% Inhibition” value is reported as -1% and the Z score is reported as 0.26.
Cc1cccc(NC(=O)Cn2cnc3c(c(C)c(C)n3-c3ccccc3)c2=O)c1C was tested, and the “% Inhibition” value was 5% and the Z score was -0.54.
COc1ncccc1NC(=O)N1CCc2c(sc(N)c2C#N)C1 was tested, and the “% Inhibition” value was 11% and the Z score was -1.25.
For O=C(NCCO)c1c(O)c2cccc3c2n(c1=O)CCC3, the “% Inhibition” value was -8% and the Z score was 0.75.
For O=c1ccc(S(=O)(=O)N2CCCCCC2)c[nH]1, the “% Inhibition” value was -1% and the Z score was 0.16.
For CCn1c(COc2ccc(F)cc2)nnc1N1CCOC(C)(C)C1, the “% Inhibition” value was -8% and the Z score was 1.07.
COc1ccc(NC(=O)C2CCC2)cn1 was tested, and the “% Inhibition” value was 5% and the Z score was -0.62.
For Cc1cc(C(=O)CN2CCS(=O)(=O)C3CCCCC32)c(C)[nH]1 (stereo unspecified), the “% Inhibition” value was -3% and the Z score was 0.53.
In the case of CC[C@H](NC(=O)NCC1(OC)CCC1)c1nccs1, the “% Inhibition” value is reported as -9% and the Z score is reported as 1.13.
For Nc1ccccc1[C@H]1CC1(Cl)Cl, the “% Inhibition” value was -6% and the Z score was 0.8.
For Cc1csc(CNc2cccc(CNC(=O)OC(C)(C)C)c2)n1, the “% Inhibition” value was -10% and the Z score was 1.49.
For CC(C)c1nn(-c2ccccc2)c(N(C)C)c1CN(CC1CC1)C(=O)c1ccccc1F, the “% Inhibition” value was -3% and the Z score was 0.48.
With CC1CCCCC1N(C)C(=O)CS(=O)(=O)c1cccs1 (stereo unspecified) the “% Inhibition” value was -14% and the Z score was 2.55.
O=C(c1csc(=O)[nH]1)N1CCC(Cc2ccccc2)CC1 was tested, and the “% Inhibition” value was -3% and the Z score was 0.47.
In the case of COCC1CCN(C(=O)[C@@H]2Cc3[nH]cnc3C3(CCCC3)N2)CC1, the “% Inhibition” value is reported as -7% and the Z score is reported as 1.06.
In the case of Cn1c(C(=O)NC[C@@H]2CCCN3CCCC[C@H]23)cc2c(Cl)cccc21, the “% Inhibition” value is reported as -3% and the Z score is reported as 0.49.
For CN(CCC#N)Cc1noc(-c2ccoc2)n1, the “% Inhibition” value was -5% and the Z score was 0.94.
